Test results published in PubChem BioAssay AID686978 (National Center for Advancing Translational Sciences (NCATS), 2013).
Among all 420,000 compounds or so, about 64,000 (15%) were called active. Inconclusive results, whose numbers are uncertain, are shown with a selection of clear calls. Calls follow the shape of the dose curve; as a rule, active = well fitted inhibition curve with a large enough effect; inconclusive = small, poorly fitted or top-dose-only effect; inactive = flat fitted curve, though single readings scatter. No potency is given beside an inconclusive call; the fits are too rough.

Assay: qHTS for Inhibitors of human tyrosyl-DNA phosphodiesterase 1 (TDP1): qHTS in cells in absence of CPT; also: nearly all actives have a fitted effect of over 55% in size
Settings: DT40 Tdp1-/- hTDP1 cells, no CPT, ATP luminescence, 48 h; activity change, negative = growth inhibition: at 46.2 µM (top of the series) unless noted
Procedure, shortened: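 Chicken DT40 Tdp1-/- cells stably complemented with human TDP1 were seeded at 400 cells/well with DMSO in place of 20 nM camptothecin. After compound pinning, cells grew at least 48 hr at 37 °C; viability read by CellTiter-Glo luminescence.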
% is scaled to controls: 0 for no effect and ±100 for the full control effect; potency is read from the fitted curve at half-maximal effect; tags tell the direction and shape of the fitted curve.

SMILES	Potency	activity change, negative = growth inhibition
Cc1cc(=O)oc2c(C)c(OCC(=O)N3CCN(c4cccc(Cl)c4)CC3)ccc12	active: 23.1 µM	
CCOC(=O)c1cccc(NC(=O)C2COc3ccc(OC)cc3C2)c1 (stereo not drawn)	inconclusive [inhibitor, single point]	
COc1ccc(C(CNC(=O)c2oc3ccc(F)cc3c2C)N2CCCCC2)cc1 (stereo not drawn)	inconclusive [inhibitor, single point]	
O=C(c1ccco1)N1CCN(CCOc2ccccc2)CC1		inactive: -12.4%
CC1CCCCN1C(=O)C1COc2ccccc2O1 (stereo not drawn)		inactive: -17.3%
COc1ccc(N2CCC(CNC(=O)Nc3ccccc3)C2)cc1 (stereo not drawn)		inconclusive: -31% [inhibitor]
CC(Oc1ccc(C(C)(C)C)cc1)c1ccnc2nc(/N=C/N(C)C)nn12 (stereo not drawn)	inconclusive [inhibitor, single point]	
COC(=O)Cc1[nH]nc2c1C(c1cc(OC)c(OC)c(OC)c1)C(C#N)=C(N)O2 (stereo not drawn)		inactive: 4.78%
CCOC(=O)N1CCN(c2c(N3CC=C(c4ccccc4)CC3)c(=O)c2=O)CC1	active: 16.4 µM	
CC1=CC(C)(C)Nc2ccc(OC(=O)C(C)N3C(=O)c4ccccc4C3=O)cc21 (stereo not drawn)	active: 2.59 µM	
COc1ccc(C)cc1NC(=O)CSc1nc(=O)n(Cc2ccco2)c2c1CCC2	inconclusive [inhibitor, partial curve, poor fit]	
CCOc1ccc(NC(=S)NN(C)C(=S)Nc2ccc(OCC)cc2)cc1	inconclusive [inhibitor, single point]	
COc1ccccc1NCC(=O)NC(=O)NC1CCCCC1	inconclusive [inhibitor, single point]	
Cc1ccc(-n2cc(-c3ccccc3)c3c(N4CCC(C)CC4)ncnc32)cc1Cl		inactive: -11.6%
CC(=O)OCC(=O)[C@@]1(O)CC[C@H]2[C@@H]3CCC4=CC(=O)CC[C@]4(C)C3=CC[C@@]21C		inactive: -23.4%
c1cc2ccc3ccc(-n4cnnn4)c4ccc(c1)c2c34	inconclusive [inhibitor, partial curve, poor fit]	
CCCCc1ccc(NC(=O)Cn2cnc3c(oc4ccccc43)c2=O)cc1		inactive: -16.5%
Cc1ccc(N2C(=O)N(CC(=O)Nc3cc(Cl)ccc3C)C(=O)C2C)cc1 (stereo not drawn)	inconclusive [inhibitor, single point]	
Cn1c2ccccc2c(=O)c2cc(C#Cc3ccccn3)ccc21		inconclusive: -34.5% [inhibitor]

SMILES	Potency	activity change, negative = growth inhibition
N#Cc1c(NCCN)nc(-c2ccccc2)c2c1CCCC2	inconclusive [inhibitor, single point]	
O=C(CN1CCN(C(=O)c2ccccc2)CC1)Nc1cc(S(=O)(=O)N2CCCC2)ccc1Cl	inconclusive [inhibitor, single point]	
CC(C)(C)c1ccc(CCC2OCC(CN3CCOCC3)O2)cc1 (stereo not drawn)	inconclusive [inhibitor, partial curve, poor fit]	
COc1cccc(Cn2nc3c4cc(F)ccc4n(Cc4ccc(F)cc4)cc-3c2=O)c1		inconclusive: -18.8% [inhibitor]
CC(C)(C)NC(=O)C(c1ccc(O)cc1)N(C(=O)CCC(=O)Nc1nccs1)c1ccc(F)cc1 (stereo not drawn)	inconclusive [inhibitor, single point]	
O=C(NCc1ccc(Cl)cc1)c1ccc2c(c1)nnn2C1CCCC1		inactive: -27.9%
Cc1nc2ccccn2c(=O)c1NC(=O)c1cccc2ccccc12	inconclusive [inhibitor, single point]	
Cc1cccc(C)c1NC(=S)N(c1ccccc1)C(C)C		inactive: 16%
CCOC(=O)C(O)(CC(=O)c1ccc(Cl)cc1)C(=O)OCC		inactive: -1.89%
CNc1nc(Cl)nc2c1ncn2-c1ccccc1		inactive: -6.93%
O=c1[nH]c2ccccc2nc1-c1nnnn1Cc1ccccc1		inactive: -27.5%
CC(=O)c1ccc(NC(=O)CNCC(c2ccccc2)N(C)C)cc1 (stereo not drawn)	inconclusive [inhibitor, partial curve]	
O=C(NCCc1ccccc1)c1cccc(NC(=O)C2CCCCC2)c1	inconclusive [inhibitor, single point]	
CCOC(=O)N1CCN(C(=O)c2csc3c2CCCCC3)CC1	inconclusive [inhibitor, single point]	
COc1ccc(OCCSc2nc(C)nc3ccccc23)cc1	inconclusive [inhibitor, single point]	
CCOC(=O)N1CCN(Cc2nc(N)nc(Nc3ccc(Cl)cc3)n2)CC1	inconclusive [inhibitor, single point]	
Cc1noc(C)c1S(=O)(=O)N1CCC(C(=O)N2CCN(C(=O)c3ccco3)CC2)CC1		inactive: 13.8%
O=C(NCc1ccc(F)cc1)c1cc(C2CCCCN2S(=O)(=O)c2ccccc2)on1 (stereo not drawn)	inconclusive [inhibitor, single point]	
Cc1ccc(-c2cc(C(=O)N/N=C/c3cccnc3)n[nH]2)o1		inactive: -28.5%
